Measurements taken from the supplement of paper PMC7826260.
The list shows a part of the results. Cleavage of a single-stranded DNA pool by Rep nickase domains was read by sequencing (1 h at 37 °C, 3 µM enzyme); the outer parts of the 90-letter strands are left off. Values are log2 of uncut reads against the no-enzyme pool; the lower, the more was cut; hits are not called. Reads are scaled to the total; uncut strands gain when others are lost, and binding without cutting may add a little.

What follows are sequences tested on T1, Rep nickase domain of tomato golden mosaic virus (assay: uncleaved DNA left, log2 of reads against the no-enzyme library (log2 ratio); higher = less cleavage (more negative = more Rep cleavage of the k-mer); sequences stand for … in CTCGTCCG…ACCGGAGA).
T1 sequence (residues 1-124, tag not shown): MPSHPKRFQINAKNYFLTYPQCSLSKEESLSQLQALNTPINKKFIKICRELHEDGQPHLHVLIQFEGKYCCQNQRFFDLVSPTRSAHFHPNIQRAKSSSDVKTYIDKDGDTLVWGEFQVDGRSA
Protocol: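 A pool of 90-nt single-stranded DNAs with seven random bases just before the constant AC of the nick site (name = the seven bases) was cut by 3 µM recombinant His6-SUMO-tagged Rep nickase domain (300 nM DNA, 50 mM HEPES pH 8.0, 50 mM NaCl, 1 mM MnCl2, 1 h, 37 °C, three replicates). Uncut DNA was amplified and sequenced.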

Row | Sequence | uncleaved DNA left (log2)
1 | CTGGCGG | 0.193
2 | AGCATAA | 0.0256
3 | ACGACTC | 0.0238
4 | AACGATT | -0.0302
5 | TCGGACT | 0.00593
6 | AAAGTCT | -0.0821
7 | TTATGTG | -0.0159
8 | CCTATTA | 0.0965
9 | ACTGCAC | -0.0182
10 | CGGATTC | -0.0886
11 | CGAGAAG | 0.0916
12 | GCGGGTG | 0.0516
13 | TTGAGCT | -0.125
14 | GCGCTGG | -0.0222
15 | AATACAG | -0.0126
16 | GGCTGGC | 0.206
17 | TTACAGA | -0.0385
18 | GAATCTT | -2.92
19 | ACTGCAT | -0.0437
20 | TAACCCA | -0.196

Row | Sequence | uncleaved DNA left (log2)
21 | TAGAAGC | -0.0672
22 | CGAGCTG | -0.00606
23 | CCGGGAA | -0.219
24 | TGCCCGC | -0.0065
25 | TGTGCCG | -0.231
26 | TGGACAT | -0.0549
27 | ACCTCGA | 0.0427
28 | ACATGCA | 0.038
29 | TATCTGC | -0.262
30 | TAAAGAT | -0.319
31 | TTGCCAC | -0.00197
32 | GTGAGGA | 0.11
33 | GCGCAGA | 0.109
34 | GCTTAGC | -0.0738
35 | GTTAGGC | 0.0697
36 | AGCGAAA | 0.181
37 | AGGCGCT | -0.101
38 | GACAACA | -0.00522
39 | ACAAGCA | -0.0433
40 | TCAATAG | -0.0857
